About 3,600 (1.6%) of roughly 230,000 compounds were called active. This list was built around the results that the source calls inconclusive (neither active nor inactive); the mix of calls is not that of the screen. The call rests on the fitted dose curve; in most records, active means well fitted inhibition curve with a large enough effect (not every such curve was filed as active); inconclusive means small, poorly fitted or top-dose-only effect, or another doubt; inactive means no such curve, though single readings can be large or run the other way. A potency beside an inconclusive call is a rough fit, not a confirmed value.
The compounds below were run against Lysine-specific demethylase 4E (Homo sapiens) (UniProt B2RXH2) (assay: qHTS Assay for Inhibitors of Human Jumonji Domain Containing 2E (JMJD2E)). Settings: JMJD2E catalytic domain, FDH-coupled NADH fluorescence (FDH is formaldehyde dehydrogenase); series mostly up to 57.1 µM.
Chain of UniProt B2RXH2 (B2RXH2 whole entry, looked up, the tested form may be a part): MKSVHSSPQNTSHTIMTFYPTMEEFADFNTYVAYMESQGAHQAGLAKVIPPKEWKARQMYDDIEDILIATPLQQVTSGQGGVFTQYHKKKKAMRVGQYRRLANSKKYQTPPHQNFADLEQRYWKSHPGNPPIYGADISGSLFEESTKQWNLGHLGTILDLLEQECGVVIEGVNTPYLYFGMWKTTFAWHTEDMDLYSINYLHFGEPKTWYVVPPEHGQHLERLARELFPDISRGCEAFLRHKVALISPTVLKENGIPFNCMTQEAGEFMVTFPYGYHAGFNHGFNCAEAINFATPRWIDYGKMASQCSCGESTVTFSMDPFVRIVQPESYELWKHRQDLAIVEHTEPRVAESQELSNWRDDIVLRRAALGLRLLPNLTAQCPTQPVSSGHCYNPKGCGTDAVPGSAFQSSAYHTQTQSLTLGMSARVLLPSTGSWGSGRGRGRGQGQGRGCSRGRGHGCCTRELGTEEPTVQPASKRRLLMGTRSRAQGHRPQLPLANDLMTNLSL
Further: nearly all actives have a fitted effect of over 50% in size.
Potency means the concentration at half of the fitted maximal effect; tags describe the fitted curve by direction and shape.

Structure (SMILES) | Potency
CC(C)C(=O)Nc1ccc(NC(=O)c2ccco2)cn1 | inconclusive: 39.8 µM [inhibitor, single point]
CCN1C(=O)c2cccc3c(S(=O)(=O)Nc4ccncc4)ccc1c23 | inconclusive: 25.1 µM [inhibitor, partial curve]
N=c1n(CCN2CCCCC2)c2ccccc2n1CC(O)c1ccco1 (stereo unspecified) | inconclusive: 25.1 µM [inhibitor, single point]
Fc1ccccc1N1CCN(c2ncnc3nc[nH]c23)CC1 | inactive
CC(C)c1cccc2nc3c(c([Si](C)(C)C(C)(C)C)c12)Cn1c-3cccc1=O | inconclusive: 14.1 µM [inhibitor, partial curve]
CCCCN(CC)Cc1c(O)ccc2c3c(c(=O)oc12)CCC3 | inconclusive: 22.4 µM [inhibitor, partial curve]
COc1cc(C2Nc3ccccc3C(=O)N2c2ccc3c(c2)OCCO3)ccc1OCC(C)C (stereo unspecified) | inconclusive: 31.6 µM [inhibitor, partial curve]
COc1ccc(/C(O)=C/c2nc3ccccc3n(-c3ccccc3)c2=O)cc1 | inactive
CCSC(C)CC1CC(=O)CC(=O)C1 (stereo unspecified) | inactive
CN(Cc1ccccc1)c1nc2nonc2nc1N1CCCC(CN2CCCC2=O)C1 (stereo unspecified) | inconclusive: 39.8 µM [inhibitor, single point]
CCCCn1nnc(NC(=O)c2ccc(-c3cccc(Cl)c3)o2)n1 | inconclusive: 35.5 µM [inhibitor, single point]
O=C(NN1C(=O)c2ccccc2NC1c1ccccn1)c1ccc(Br)cc1 (stereo unspecified) | inconclusive: 25.1 µM [inhibitor, single point]
CCn1c(-c2ccc(C(C)(C)C)cc2)n[nH]c1=S | inconclusive: 25.1 µM [inhibitor, single point]
COc1cccc(-c2nnc(-c3ccco3)o2)c1 | inconclusive: 28.2 µM [inhibitor, partial curve]
CC1CCCCN1S(=O)(=O)c1ccc(C(=O)Nc2nnc(-c3ccccn3)o2)cc1 (stereo unspecified) | inconclusive: 35.5 µM [inhibitor, single point]
COc1ccc(NC(=O)CC2SC(=NCc3ccccc3OC)NC2=O)cc1 (stereo unspecified) | inactive
CCCc1cc(=O)oc2cc3occ(C)c3cc12 | inconclusive: 28.2 µM [inhibitor, partial curve]
Cc1ccc(NC2c3ncccc3C(=O)N2Cc2cccs2)cc1C (stereo unspecified) | inconclusive: 39.8 µM [inhibitor, single point]
CCOC(=O)N1CCN(CC(O)COc2ccc(OC)cc2C(C)(C)C)CC1 (stereo unspecified) | inactive
Oc1c(C(c2ccc(Cl)cc2)N2CCCC2)cc(Cl)c2cccnc12 (stereo unspecified) | inconclusive: 28.2 µM [inhibitor, single point]
CC(C)CNC(=O)C(=O)NNC(=O)c1ccco1 | inactive
COc1cc(/C=C2\C(=N)N3N=CSC3=NC2=O)cc(Br)c1OC(=O)c1ccco1 | inconclusive: 8.91 µM [inhibitor, full curve]
CC1C/C(=N/Nc2nc3ccccc3[nH]2)CC(C)(C)C1 (stereo unspecified) | inactive
COc1c(C(=O)Nc2ccc(Cc3ccncc3)cc2)ccc2ccccc12 | inconclusive: 4.47 µM [inhibitor, single point]

Structure (SMILES) | Potency
O=C(Nc1ccc2nc(-c3ccco3)c(-c3ccco3)nc2c1)N1CCCCCC1 | inconclusive: 11.2 µM [inhibitor, partial curve]
Cc1c(N2C(=O)/C(=C\c3ccc(N(C)C)cc3)N(C)C2=S)c(=O)n(-c2ccccc2)n1C | inactive
COc1cccc(-c2ccc(C#N)c(SCC(=O)NCCc3cccc(Cl)c3)n2)c1 | inconclusive: 39.8 µM [inhibitor, single point]
CC1=C(C(=O)OCc2ccccc2)C(c2ccco2)C2=C(CC(C)(C)CC2=O)N1 (stereo unspecified) | inconclusive: 25.1 µM [inhibitor, single point]
CCOC(=O)c1cc2c(ccn2C)n1CC(=O)N(CC)CC | inconclusive: 31.6 µM [inhibitor, partial curve]
CCSc1nnc(CSc2ncccn2)n1C | inactive
COCc1cc(C)nc(OCC(=O)N/N=C/c2ccc(-c3cc([N+](=O)[O-])ccc3C)o2)c1C#N | inconclusive: 35.5 µM [inhibitor, single point]
CC(C)Cn1c(-c2ccc(Br)o2)n[nH]c1=S | inconclusive: 20 µM [inhibitor, single point]
Cc1cc(-c2nc3ccccc3[nH]2)ccc1N | inconclusive: 28.2 µM [inhibitor, partial curve]
O=C(O)CCCC(=O)Nc1ccc(-n2ccc(C(F)(F)F)n2)cc1 | inactive
O=C(O)C/C(=C\c1cccc(NC(=O)c2ccccc2Cl)c1)c1nc2ccccc2s1 | inconclusive: 28.2 µM [inhibitor, partial curve]
c1ccc(NCc2nnc3n2CCCCC3)cc1 | inactive
CCn1c(SCC(=O)Nc2cc(C)on2)nnc1-c1ccc(S(=O)(=O)N2CCN(C)CC2)cc1 | inconclusive: 31.6 µM [inhibitor, single point]
CCc1ccc(NC(=O)c2cnc3scc(C)n3c2=O)cc1 | inconclusive: 35.5 µM [inhibitor, single point]
CCC(c1nnnn1CCc1ccccc1)N(Cc1ccco1)Cc1cc2c(C)ccc(C)c2[nH]c1=O (stereo unspecified) | inconclusive: 25.1 µM [inhibitor, partial curve]
Cn1c(SCC(=O)N2CCOCC2)nc2cccnc21 | inconclusive: 31.6 µM [inhibitor, single point]
Cc1cccc(C2c3[nH]c4ccccc4c3CCN2C(=O)c2cc3c([nH]c2=O)CCCC3)n1 (stereo unspecified) | inconclusive: 0.0126 µM [inhibitor, full curve, poor fit]
CC(C)CC(=O)Nc1cccc(NC(=O)c2ccccc2Cl)c1 | inactive
COC(=O)c1ccccc1NC(=O)c1cn(-c2ccc(C)c(C)c2)c(=O)c2ccccc12 | inconclusive: 28.2 µM [inhibitor, partial curve]
CCn1cc(C(=O)N2CCN(C3CCCCC3)CC2)c2cc(OC)c(OC)cc2c1=O | inconclusive: 39.8 µM [inhibitor, single point]
Cc1cc(C)c(C)c(S(=O)(=O)N2CCN(CC(=O)Nc3sccc3C#N)CC2)c1C | inconclusive: 39.8 µM [inhibitor, single point]
CCc1cc2c(NCc3ccco3)ncnc2s1 | inconclusive: 39.8 µM [inhibitor, single point]
CCOC(=O)Nc1ccc(C(=O)NCC2CCCO2)cc1 (stereo unspecified) | inactive
COc1ccc(OCc2cccc(C(=O)Nc3ccc(CN4CCCCC4)cc3)c2)cc1 | inconclusive: 35.5 µM [inhibitor, single point]

Structure (SMILES) | Potency
CCCN1C(=O)c2cc(C(=O)Nc3ccccc3OC)ccc2C1Nc1ccccc1OC (stereo unspecified) | inconclusive: 28.2 µM [inhibitor, single point]
COc1ccccc1C1CC(=O)n2c(nc(-c3ccccc3)c2-c2ccccc2)S1 (stereo unspecified) | inconclusive: 8.91 µM [inhibitor, single point]
CCOC(=O)c1sc(Nc2ccc(Br)cc2)nc1C | inconclusive: 39.8 µM [inhibitor, single point]
Cc1cc(=O)[nH]c(N/N=C/c2ccccc2C(F)(F)F)n1 | inconclusive: 31.6 µM [inhibitor, single point]
Cc1c(Cl)c(-c2n[nH]c(=S)n2-c2ccc(F)cc2)nn1C | inactive
COC(=O)c1ccccc1Oc1ccc(NC(=O)CCCl)cc1 | inactive
O=C(CCNc1ccc(Cc2ccncc2)cc1)c1cccc([N+](=O)[O-])c1 | inactive
CC(NC(=S)N1CCOCC1)c1ccccc1 (stereo unspecified) | inactive
CCN(CC)CCOC(=O)c1ccc(N/C=C(/C#N)c2nc(-c3ccc4c(c3)OCO4)cs2)cc1 | inconclusive: 39.8 µM [inhibitor, single point]
Cc1cc2c(=O)oc(-c3ccc(F)cc3)nc2s1 | inactive
O=C(c1ccc(Cl)cc1)N(Cc1ccc(Br)cc1)N1C(=O)CCC1=O | inconclusive: 35.5 µM [inhibitor, single point]
Cc1nnsc1C(=O)NNc1ccc(C(C)C)cc1 | inactive
O=C(c1c[nH]c(C(=O)C(Cl)(Cl)Cl)c1)c1ccccc1Cl | inactive
Cn1c(SCC(=O)OC2CCCCC2)nnc1-c1ccco1 | inactive
O=C(Nc1ccc2c(c1)OCCO2)C1CCN(C(=O)c2ccc(Br)cc2)CC1 | inactive
O=C(NC1CCCC1)C(c1ccncc1)N(CCCN1CCOCC1)C(=O)c1ccc(-c2ccccc2)[nH]1 (stereo unspecified) | inconclusive: 35.5 µM [inhibitor, single point]
O=C(Nc1nnc(-c2cccnc2)o1)c1cccc(Cl)c1 | inconclusive: 31.6 µM [inhibitor, single point]
C=CCN(c1ccccc1)S(=O)(=O)c1cccc(C(=O)Nc2nnc(SCC)s2)c1 | inconclusive: 31.6 µM [inhibitor, single point]
Cc1nn(Cc2ccccc2)c2c1C(c1cccnc1)C(C#N)=C(N)O2 (stereo unspecified) | inconclusive: 31.6 µM [inhibitor, single point]
Cc1cc2nn(-c3cccc4ccccc34)nc2cc1NC(=O)c1cccs1 | inconclusive: 8.91 µM [inhibitor, partial curve]
c1cc2c(cn1)cnc1cscc12 | inconclusive: 25.1 µM [inhibitor, partial curve]
Cn1c(=O)cc(SCC(=O)NCC2CCCO2)c2ccc(Cl)cc21 (stereo unspecified) | inconclusive: 31.6 µM [inhibitor, single point]
Cc1ccc(NC(=O)COC(=O)Cn2cnc3c2c(=O)n(C)c(=O)n3C)cc1Cl | inactive

Source: PubChem BioAssay AID2147 (National Center for Advancing Translational Sciences (NCATS), 2009)
